In the supplement of paper PMC11417369:
The list shows a part of the results.

test system: PfHDP1 homeodomain (GST-tagged); experiment: gcPBM binding intensity (ln(normalized median fluorescence intensity)); higher = stronger DNA binding
Summary of the method: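 Using an Agilent 4 × 180k array, primer-extended double-stranded 36-bp intergenic genomic probes and negative controls were exposed for 1 h to GST-fused P. falciparum DNA-binding domains expressed in E. coli. Binding was carried out in 1× PBS with 1% milk, 0.2 mg/ml BSA, 0.5% salmon testes DNA and 0.03% Triton X-100, and protein was detected with Alexa488 anti-GST antibody and a 488 nm scan. Binding intensity is the highest Masliner-normalised natural-log median intensity across replicate spots of either probe orientation.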

In order of falling “gcPBM binding intensity (ln)” value:
1. AAAATTAACGAGTGCACACATATTTAGATAAAATAC [CACACA_site2936]  11.3
2. TGTTCAGTATTGCACACACACAACAAAATAAAAAAA [CACACA_site6314]  10.4
3. ACATAAAAATTATGCACACTTAATAAAGCGAAATGT [CACACA_site3183]  10.3
4. ACATAATTATTATGCACACATATTTTTATGTATTTA [CACACA_site698]  10.2
5. AAATAGTTGTTAAAGGTGCACAATATGGATATAAGA  9.86
6. ATATATATATATATATGTACTTAATGTTATTATATA [XGTACX_site4508]  9.59
7. AAAACAAAAGAATTCACACATATATATATATATATA [CACACA_site4777]  9.44
8. ATTCTATTTTTAAGTACACACATATATATATATATA [CACACA_site3658]  9.43
9. ATATCATTTTATTTGTGTACTTAAAAAGTTGCAATG [XGTACX_site4099]  9.18
10. ATGTACTATAGGCACACACACTCACATATATATATA [CACACA_site5745]  9.01
11. ATTTATTTTAAATAAGTGCAAAATGGTTATAAATAA  8.98
12. GAAATGTGATAATATACACACACGCATATATATATA [CACACA_site4332]  8.82
13. TATATATATATGTGTACACAAAAAATATTATATTAT [CACACA_site5505]  8.81
14. TTTTTAATCCTTTGCGCATGTAAAATTATATATTTT [TGCATGCA_site306]  7.54
15. TCCCCATATGTTTTGTGTACATATATATTTTTTTGT [XGTACX_site75]  7.27
16. TGAAAATATATAACGCGTACAAAAAGGAAATACAAT [XGTACX_site3534]  7.03
17. GCTTATTTTAATTCTTGTACTTATTTATATACAAAT [XGTACX_site2099]  7.01
18. ATTATATATATATTATGTACATATATTGAAGTGGAT [XGTACX_site5916]  6.99
19. ATAAATATTTTGTAAGCATGCTTTTAAAAAAAGAAA [TGCATGCA_site572]  6.96
20. ATATATGGAAAGAGTAGTACTATTATAGGGGTGTTA [XGTACX_site6785]  6.91
21. AAAACTTTTTTAACAGAAAAATAGGGATACAATATA [CACACA_negctrl_site1708]  6.83
22. TTAAACGTACATAATACACACACATGTAGACATATA [CACACA_site8635]  6.8
23. TCATATAAGTTTAGTAGTACTAAAAGTTAGAGAGAA [XGTACX_site3430]  6.78
24. TTGAAAATTCTTAAGGCACACACATATATAATATAT [CACACA_site8088]  6.75
25. AAAATTAAACATACATCACACATGCATTATATTATG [CACACA_site5517]  6.63
26. TAAATACAAGAACTGACACACATACATACTACATTT [CACACA_site5561]  6.61
27. ATCACAAAAAAGTTCATACACACAACCTATTTATAT [CACACA_site2888]  6.59
28. GGAATAACCAGACACACACACACATATAAATATGTA [CACACA_site7632]  6.59
29. CAAGGAACCAGACACACACACATAAATGTATATATA [CACACA_site752]  6.56
30. CACAACAGGGTTGAGGTGCGTAAAAATAGTAGAATA [GTGCAC_site9523]  6.55
31. ATAACATTCAAAAAATGTACAAACATATGAATAAAT [XGTACX_site7013]  6.52
32. TTTTTTTTTTTTTTTGCATGTTGAAAATAAAATTAT [TGCATGCA_site86]  6.48
33. TAATATATTAATATATGTACATATTTATATATCTAC [XGTACX_site7117]  6.47
34. GAACATTACGTAAATAAATAAATAAAAATAAATACA [XGTACX_negctrl_site25]  6.46
35. TATTGTCTTGTATATGCATGTAGACCAAATATGTAA [TGCATGCA_site9]  6.42
36. TAATGGTGTTCATGTGGTACACTTTATAAATTGGCA [XGTACX_site729]  6.41
37. ATACTTTATTAATATTGTACAAAATAAGAAAAAAAA [XGTACX_site310]  6.41
38. AAATAAGAGCGTAGCACACACGCATTTTATAAATGG [CACACA_site4571]  6.37
39. AAAATTTCAATAAATACACACATATAAATATAGATT [CACACA_site6893]  6.37
40. ATAAAGTCTATATTATGTACATATAATATAAATATT [XGTACX_site6703]  6.22
41. AAAAAACTTCACATATGTACTTAAAAAAAATTAAAA [XGTACX_site2368]  6.18
42. CAAAAAAAAATCTGTAGTACTTATTAATATTGCTGT [XGTACX_site4767]  6.17
43. AAATCAAATTTTTAGAGTACTTAAGTTTTCTATATA [XGTACX_site7827]  6.11
44. TGATTATTATAATTTAGTACATAATATTTTATATAA [XGTACX_site6125]  6.1
45. GGAAAAAAATAAAATAAGTATTTTACATACATATTG [TGCATGCA_negctrl_site10]  5.87
